From PubChem BioAssay AID463173 (ICCB-Longwood Screening Facility, Harvard Medical School, 2010)
Screen size: about 52,000 compounds; about 1,700 (3.3%) were called active. Cut-off read from the data, not from the text of the source: active = survival mostly below about 52% (no sharp cut-off); inactive = mostly above about 56%. The list shows a part of the results.

system: Wild type; assay: growth inhibition of S. aureus wild type versus tarO mutant, primary screen, teichoic acid synthesis inhibitors, RN4220, OD600 (AID 463173); settings: S. aureus RN4220 wild type/DeltatarO growth, OD600, 18 h, hits give low values, screened at 18.75 µg/mL (by protocol)

SMILES	survival
CCC(=O)C1=C(c2cccc(OC)c2)N(C(=O)CC)n2c(nnc2C2CCCCC2)S1	inactive: 47%
CCn1cc(C(=O)N2CCN(c3ccc(C(C)=O)cc3)CC2)c2cc(OC)c(OC)cc2c1=O	inactive: 140%
Cc1ccc(NC(=O)Cn2c(=O)oc3cc(S(=O)(=O)NCc4ccccc4)ccc32)cc1	inactive: 81%
Cc1cccc(C)c1OCc1nc2c3c(-c4ccccc4)c(-c4ccccc4)oc3ncn2n1	inactive: 75%
COc1cccc(NC(=O)C2CCN(c3nn4cc(-c5ccc(F)cc5)nc4s3)CC2)c1	inactive: 89%
Cc1cccc2c1-c1sc(C(=O)N(C)c3cccc(C(F)(F)F)c3)cc1CO2	inactive: 24%
CC(=O)C1=C(c2ccc(C)c(C)c2)N(C(C)=O)n2c(nnc2-c2ccc(Cl)cc2)S1	inactive: 136%
CC(=O)Nc1cc(-n2cnnn2)ccc1C	inactive: 98%
CCNC(=O)c1nn(-c2ccccc2C)nc1CO	inactive: 115%
Cc1cccc(CNC(=O)CCCn2c(=O)c3cccn3c3ccc(F)cc32)c1	inactive: 96%
Cc1csc2nc(COc3ccccc3NC(=O)c3ccc(C(C)(C)C)cc3)cc(=O)n12	inactive: 80%
Cc1ccc(CN2CCN(CC(=O)Nc3ccc(C)c(C)c3)S2(=O)=O)cc1	inactive: 85%
N#Cc1cccc(NC(=O)C2CCN(S(=O)(=O)c3ccc4[nH]c(=O)ccc4c3)CC2)c1	inactive: 78%
Cc1ccccc1-n1nc(CO)c(C(=O)NCc2cccs2)n1	inactive: 90%
O=C(Cn1c(=O)n(-c2ccccc2Cl)c(=O)c2sc3ccccc3c21)NC1CCCCC1	inactive: 132%
Cc1c(NC(=O)c2nc3ccccc3nc2N2CCCCC2)cccc1[N+](=O)[O-]	inactive: 85%
Cc1ccccc1OC(=O)CSc1nnc(-c2ccc(F)cc2)o1	inactive: 84%
CCOC(=O)c1cc(C)n(CC2CCC(C(=O)Nc3ccc(C)c(F)c3)CC2)c1C (configuration not stated)	inactive: 75%
O=C(O)c1cc2n(n1)C(C(F)(F)F)CC(C1CC1)N2 (configuration not stated)	inactive: 103%
Cc1ccc(C(=O)Nc2ccc(-c3nc4ccccc4s3)cc2C)cc1C	inactive: 73%
Cc1ccc(OCC(=O)N2CCC(C)CC2)cc1C	inactive: 109%
CCNC(=S)N1CCC(NC(=O)c2ccccc2)CC1	inactive: 107%
COc1ccc(N2CC(NC(=O)CCCc3ccccc3)CC2=O)cc1 (configuration not stated)	active: 0%

SMILES	survival
COC(=O)c1ccccc1NC(=O)Nc1nnc(N2CCC(C)CC2)s1	inactive: 86%
CCOc1cc(CNC(=O)NC2COc3ccc(OC)cc3C2)cc(OCC)c1OCC (configuration not stated)	inactive: 73%
CCOc1ccc(CNCc2c(C(=O)O)n(Cc3ccc(C)cc3)c3cc(C)ccc23)cc1	inactive: 21%
Cc1c(Cl)cccc1NC(=O)CN(CCc1ccccc1)S(=O)(=O)c1ccccc1	inactive: 71%
Cc1ccccc1OCC(=O)Nc1ccc(-c2nc3ncccc3o2)cc1	inactive: 69%
CCCCN(CC)CCNC(=O)c1cc2c(=O)[nH]c3ccccc3c2n1C	inactive: 74%
Cc1cccc(C(=O)N2CCc3cc(CNS(=O)(=O)c4ccc(Cl)s4)ccc32)c1	inactive: 81%
CN(C)c1nc(OCCNC(=O)COc2ccccc2Cl)nc(N(C)C)n1	inactive: 107%
Cc1ccccc1NS(=O)(=O)c1ccc2[nH]cc(C(=O)N3CCCCC3)c(=O)c2c1	inactive: 68%
COc1ccc(C)cc1-n1nnc(-c2nc(-c3ccccc3Cl)no2)c1N	inactive: 91%
O=C(NCc1ccccc1)c1ccc(CSc2nc3cccnc3n2Cc2cccc(F)c2)cc1	inactive: 78%
CC(C)n1c(SCc2ccccc2)nnc1C1CCCN(CC(N)=O)C1 (configuration not stated)	inactive: 112%
CCCCn1nc(NC(=O)c2cccc(Cl)c2)c2cc3ccccc3nc21	inactive: 86%
CCCCn1c(NCc2ccc(OC)cc2O)nc2ccccc21	inactive: 88%
O=C(NCc1ccc(F)cc1)c1ccc2c(O)c(S(=O)(=O)c3ccccc3)c(=O)[nH]c2c1	inactive: 88%
Cc1ccccc1CN1C(=O)c2ccccc2Sc2ccc(C(=O)N3CCCC3)cc21	inactive: 85%
COc1ccc(N=c2oc3ccc(Cl)cc3cc2C(=O)NCc2ccco2)cc1OC	inactive: 111%
Cc1c(C(N)=O)sc2ncn(Cc3ccccc3)c(=O)c12	inactive: 112%
CC(C)c1ccc(C(=O)Nc2cc(-c3ccccc3F)nn2-c2ccccc2)cc1	inactive: 73%
CCN(C(=O)c1coc(=O)c2ccccc12)c1ccccc1C	inactive: 124%
Cc1ccc(-c2nnn3c2nc(NCCc2ccc(Cl)cc2)c2ccccc23)cc1	inactive: 85%
COc1ccccc1N1CCN(S(=O)(=O)c2ccc(S(=O)(=O)NC3CCCC3)cc2)CC1	inactive: 112%
O=Nc1[nH]c(O)c2cc(Br)ccc12	inactive: 110%

SMILES	survival
CN1CCN(S(=O)(=O)c2cccc3nsnc23)CC1	inactive: 103%
CC1Cc2cc(CSC(=N)N)ccc2O1 (configuration not stated)	inactive: 108%
C=CCNC(=O)CN1CCC(O)(c2ccccc2F)CC1	inactive: 100%
CCCOc1ccc(CNC(=O)Cn2ncn3c(cc4sc(CC)cc43)c2=O)cc1	inactive: 93%
Cc1ccc(-c2nc3ccccn3c2Nc2ccccc2C)s1	active: 11%
Cc1c(C(=O)N2CCCCCC2)c(S(=O)(=O)NCc2ccc(Br)cc2)c(C)n1C	inactive: 95%
Cc1cc(C)nc(SCC(=O)OCN2C(=O)c3ccccc3C2=O)n1	inactive: 113%
COc1ccc(Nc2cc(C(=O)NC3CCC(C)CC3)c3ccccc3n2)cc1OC (configuration not stated)	inactive: 82%
CCOc1ccc(CNC(=O)c2ccc3nc(C(C)C)oc3c2)cc1	inactive: 81%
COC(=O)c1ccc(NC(=O)NCCn2nnc3cc(S(=O)(=O)N(C)C)ccc32)cc1	inactive: 55%
Cc1nn(CC(=O)O)c2c1C1C(C2)C1(C)C (configuration not stated)	inactive: 109%
CCOc1ccccc1C(=O)Nc1c(C(=O)Nc2ccc(F)cc2)oc2ccccc12	inactive: 76%
Cn1c(=O)c(=O)n(C)c2cc(S(=O)(=O)CCC(=O)Nc3ccc(F)cc3)ccc21	inactive: 89%
Oc1ccc2ccccc2c1CN1CCCC1	inactive: 103%
CCOc1ccc(C2Nc3c(C)cccc3-c3cc(C)nn32)cc1 (configuration not stated)	active: -14%
COc1ccc(S(=O)(=O)NCC(c2ccco2)S(=O)(=O)c2cccs2)cc1C (configuration not stated)	inactive: 88%
O=C1Nc2ccccc2C12Nc1ccccc1CO2 (configuration not stated)	inactive: 111%
O=C(C1CCN(Cc2ccccc2)CC1)N1CCN(c2ccccc2F)CC1	inactive: 96%
CC1=NN(C(=O)c2cccnc2)C(O)(c2ccccc2)C1 (configuration not stated)	inactive: 96%
Cc1oc2ncnc(N3CCOCC3)c2c1C(=O)N(Cc1ccccc1)C(C)C	inactive: 55%
CCOc1ccc(NC(=O)c2cnn3c2NC(c2cccc(OC)c2)=CC3c2ccccc2)cc1 (configuration not stated)	inactive: 63%
Cc1ccc(C2=NN(CC(=O)NCCC(C)C)C(=O)CC2)cc1	active: 10%
CCOC(=O)c1cc(OC(=O)c2ccc(C)cc2)n(-c2ccccc2)n1	inactive: 135%

SMILES	survival
COc1cccc(-c2nnc(-c3ccccc3NC(=O)c3cccc(C(F)(F)F)c3)o2)c1	inactive: 90%
O=c1c(S(=O)(=O)c2ccccc2)cn(Cc2cccc(F)c2)c2cc(N3CCOCC3)c(F)cc12	inactive: 85%
COc1ccc(OC(=O)c2nc(SCc3ccc(F)cc3)ncc2Cl)cc1	inactive: 83%
CCOC(=O)c1ccc(NC(=O)c2c(NCc3cccs3)sc3c2CCCC3)cc1	inactive: 71%
CCc1ccc(S(=O)(=O)c2cn(C)c3cc(N4CCC(C)CC4)c(F)cc3c2=O)cc1	inactive: 80%
Cn1c(=O)n(C)c2cc(N3CCOCC3)c(NC(=O)c3ccccc3Br)cc21	inactive: 81%
Cc1ccc(C(=O)Nc2nnc(S(=O)(=O)N3c4ccccc4CC3C)s2)cc1 (configuration not stated)	inactive: 38%
COc1ccc(NC(=O)c2ccco2)cc1NC(=O)COc1ccccc1	inactive: 78%
COc1cccc(CNC(=O)c2cc(S(=O)(=O)N3CCCCC3)cn2C)c1	active: -2%
CC(C)(C)NC(=O)Cn1c(SCC(=O)c2ccc3c(c2)OCCO3)nc2ccccc21	inactive: 105%
COc1ccc(CNC(=O)CN2C(=O)CSc3ccc(S(=O)(=O)N4CCOCC4)cc32)c(OC)c1	inactive: 90%
CC(=O)Nc1ccc(NC(=O)CSc2nc3ccccc3nc2N2CCC(C)CC2)cc1	inactive: 80%
N#Cc1c(NC(=O)C2CC(=O)NN2Cc2ccccc2)sc2c1CCCC2 (configuration not stated)	inactive: 111%
CCOC(=O)CSc1nnc(CNc2cccc(C(F)(F)F)c2)n1CC	inactive: 105%
CCCCS(=O)(=O)/C=C\C1C2C=CC(C2)C1S(=O)(=O)CCCC (configuration not stated)	inactive: 115%
Cc1ccccc1Cn1c2ccccc2c2cnn(CC(=O)NCCc3ccccc3)c(=O)c21	inactive: 130%
COc1ccc(NC(=O)C(Cc2ccccc2)n2cccc2)cc1OC (configuration not stated)	inactive: 82%
COc1cc(-c2noc(CCC(=O)Nc3cc(C)ccc3C)n2)cc(OC)c1OC	inactive: 82%
Cc1ccc(-n2ncc(C(=O)NCCc3c[nH]c4ccccc34)c2C2CCN(C(=O)OC(C)(C)C)CC2)cc1C	inactive: 142%
COc1ccc(NC(=O)CCS(=O)(=O)c2ccc3nc(C)sc3c2)cc1Cl	inactive: 81%
CCn1c(=O)c2sccc2n2c(CCC(=O)N3CCN(c4ccc(C(C)=O)cc4)CC3)nnc12	inactive: 61%
Cc1ccccc1C(=O)N(Cc1nc(-c2ccc(Cl)cc2)no1)C(C)C	inactive: 86%
CNC(=O)c1c(NC(=O)/C=C/c2ccccc2Cl)sc2c1CCC2	inactive: 72%
